# Screen size: about 5,500 compounds; about 2,000 (36%) were called active. Inconclusive means that the source gave no clear call. Such entries were picked first, then a sample of the others. No stated cut-off is given here; in the data, active means normalized growth mostly below about 0.91 (no sharp cut-off); inconclusive means no clear call, values can overlap the other calls; inactive means mostly above about 0.92. More than one record can exist for a structure, and the calls need not agree.
# Test: chemical genetic growth profiling, strain panel (AID 1159580);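 further: tested at 20 µM; growth read once vehicle control cultures reached saturation at 30 °C; 1 = growth at the plate median or of vehicle wells; lower values mean less growth of the strain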
# Conditions: S. cerevisiae deletion strains, growth OD
# [1] = locus YMR263W, strain SAP30, active compounds read low
# [2] = locus YNL197C, strain WHI3, active compounds read low
# [3] = locus YHR030C, strain SLT2, active compounds read low
# [4] = locus YJL128C, strain PBS2, active compounds read low
# [5] = locus YEL061C, strain CIN8, active compounds read low
# [6] = locus YDL132W, strain cdc53, active compounds read low
# [7] = locus YPR106W, strain ISR1, active compounds read low
# [8] = locus YDR226W, strain ADK1, active compounds read low
compound,measurement,setting,value
CN(C)CCC=C1c2ccccc2C=Cc2ccccc21,normalized growth,"locus YJL168C, strain set2, active compounds read low",inconclusive: 0.914 [sensitive]
FC(F)(F)c1cccc(CSc2n[nH]c(=S)s2)c1,normalized growth,"locus YPL055C, strain LGE1, active compounds read low",inconclusive: 0.667 [sensitive]
O=C(CCn1c(=O)oc2ccccc21)Sc1ccc(Cl)cc1Cl,normalized growth,"locus YOR119C, strain RIO1, active compounds read low",inconclusive: 0.56 [sensitive]
CC(=O)O[C@H]1C[C@@H](OC(C)=O)C(C)(C)C2C[C@@H](OC(C)=O)[C@]3(C)C(CC[C@@]4(C)[C@H](c5ccoc5)OC(=O)[C@H]5O[C@]543)[C@]21C (stereo not given in full),normalized growth,"locus YKL085W, strain MDH1 (second series), active compounds read low",inconclusive: 1.09 [resistant]
same,normalized growth,"locus YKL085W, strain MDH1, active compounds read low",inconclusive: 1.09 [resistant]
O=C(CC1NCCN(Cc2ccccc2)C1=O)Nc1ccc(Cl)cc1 (stereo not given),normalized growth,[1],inconclusive: 0.89 [sensitive]
COc1cc(C(=O)N2CCOCC2)cc(OC)c1OC,normalized growth,"locus YOL012C, strain htz1",inconclusive: 0.209 [sensitive]
Cc1cc(C)c(Cn2nc(C(C)(C)C)cc2C(=O)Nc2cccc(C(F)(F)F)c2)c(C)c1,normalized growth,"locus YJR075W, strain HOC1, active compounds read low",inconclusive: 1.12 [resistant]
CCc1cc(C(N)=S)ccn1,normalized growth,"locus YCL029C, strain bik1, active compounds read low",inconclusive: 0.888 [sensitive]
CC(C)(C)S(=O)(=O)/C(C#N)=C/N1CCCCC1,normalized growth,"locus YAL013W, strain DEP1, active compounds read low",inconclusive: 0.905 [sensitive]
O=C(O)C1=CCNCC1,normalized growth,"locus YAL040C, strain CLN3, active compounds read low",inconclusive: 0.788 [sensitive]
same,normalized growth,[2],inconclusive: 0.835 [sensitive]
same,normalized growth,"locus YOR083W, strain WHI5 (second series), active compounds read low",inconclusive: 0.836 [sensitive]
O=C(O)CCOc1ccc(Cl)cc1,normalized growth,"locus YDR150W, strain NUM1, active compounds read low",inconclusive: 0.754 [sensitive]
Cc1cc(Oc2c([N+](=O)[O-])cc(C(F)(F)F)cc2[N+](=O)[O-])c2c(Cl)ccc(C)c2n1,normalized growth,[1],inconclusive: 0.643 [sensitive]
COc1ccc(/C=C2\CSc3ccc(F)cc3C2=O)cc1,normalized growth,[3],active: 0.771
same,normalized growth,"locus YLR113W, strain HOG1, active compounds read low",active: 0.763
CC[C@H]1OC(=O)[C@H](C)[C@@H](O[C@H]2C[C@@](C)(OC)[C@@H](O)[C@H](C)O2)[C@H](C)[C@@H](O[C@@H]2O[C@H](C)C[C@H](N(C)C)[C@H]2O)[C@](C)(O)C[C@@H](C)/C(=N/OCOCCOC)[C@H](C)[C@@H](O)[C@]1(C)O,normalized growth,"locus YGR252W, strain gcn5, active compounds read low",inconclusive: 1.27 [resistant]
same,normalized growth,"locus YLR384C, strain iki3, active compounds read low",inconclusive: 1.1 [resistant]
O=C(NNc1ccc(I)cc1)c1cc(Cl)cc(Cl)c1,normalized growth,[4],inconclusive: 0.697 [sensitive]
same,normalized growth,"locus YLR133W, strain CKI1, active compounds read low",inconclusive: 0.73 [sensitive]
same,normalized growth,"locus YNL307C, strain MCK1 (second series), active compounds read low",inconclusive: 0.609 [sensitive]
c1ccc(Sc2c(-c3ccccc3)nc3ccccn23)cc1,normalized growth,[1],inconclusive: 0.753 [sensitive]
Cc1nc(-c2ccc(C(F)(F)F)cn2)[nH]c(=O)c1Cl,normalized growth,[3],inconclusive: 0.807 [sensitive]
CC1[C@H](C)OC(=O)CC(O)CC(O)CC(O)CCC(O)C(O)C[C@]2(O)CC(O)C(C(=O)O)C(CC(OC3O[C@H](C)[C@@H](O)[C@H](N)[C@@H]3O)/C=C/C=C/C=C/C=C/CC/C=C/C=C/[C@H](C)[C@H]1O)O2 (stereo not given in full),normalized growth,"locus YBR231C, strain swc5, active compounds read low",inconclusive: 0.774 [sensitive]
CCCCCCN(CCCCCC)C(=O)Cc1c(-c2ccc(F)cc2)[nH]c2ccccc12,normalized growth,[2],inconclusive: 1.1 [resistant]
CC1(C)C2CC[C@]3(C)C(C(=O)C=C4[C@@H]5C[C@@](C)(C(=O)O)CC[C@]5(C)CC[C@]43C)[C@@]2(C)CC[C@@H]1O (stereo not given in full),normalized growth,[5],inconclusive: 1.09 [resistant]
CC(=O)C1=C(C)Nc2ccccc2S1,normalized growth,"locus YJR043C, strain POL32, active compounds read low",inconclusive: 0.895 [sensitive]
C#Cc1cccc(N=Cc2cc(Cl)cc(Br)c2O)c1,normalized growth,[6],inconclusive: 0.533 [sensitive]
same,normalized growth,[7],inconclusive: 0.557 [sensitive]
same,normalized growth,"locus YPR111W, strain DBF20, active compounds read low",inconclusive: 0.574 [sensitive]
O=c1[nH]cc(F)c(=O)[nH]1,normalized growth,"locus YCL061C, strain MRC1 (second series), active compounds read low",inconclusive: 0.929 [sensitive]
same,normalized growth,[5],inconclusive: 0.921 [sensitive]
COc1ccc2nc3ccccc3c(N)c2c1,normalized growth,"locus YDL101C, strain DUN1, active compounds read low",inconclusive: 0.74 [sensitive]
same,normalized growth,[6],inconclusive: 0.814 [sensitive]
same,normalized growth,[8],inconclusive: 0.803 [sensitive]
same,normalized growth,"locus YFL009W, strain cdc4, active compounds read low",inconclusive: 0.83 [sensitive]
same,normalized growth,"locus YFR028C, strain CDC14, active compounds read low",inconclusive: 0.841 [sensitive]
same,normalized growth,[4],inconclusive: 0.646 [sensitive]
CCC(c1ccc(O)cc1)C(CC)c1ccc(O)cc1 (stereo not given),normalized growth,"locus YIL066C, strain RNR3, active compounds read low",inconclusive: 0.867 [sensitive]
CC(C)N(C(=O)SCC(Cl)=C(Cl)Cl)C(C)C,normalized growth,"locus YHR129C, strain ARP1, active compounds read low",inconclusive: 1.11 [resistant]
CO[C@@]1(NC(=O)C(C(=O)O)c2ccc(O)cc2)C(=O)N2C(C(=O)O)=C(CSc3nnnn3C)CO[C@@H]21 (stereo not given in full),normalized growth,"locus YBR009C, strain hhf1, active compounds read low",inconclusive: 0.748 [sensitive]
O=C1C(Cl)=C(Oc2cc(Cl)c(Cl)cc2Cl)C(=O)c2ccccc21,normalized growth,"locus YBL105C, strain PKC1, active compounds read low",inconclusive: 0.524 [sensitive]
same,normalized growth,"locus YBR135W, strain CKS1, active compounds read low",inconclusive: 0.516 [sensitive]
same,normalized growth,"locus YBR160W, strain CDC28, active compounds read low",inconclusive: 0.519 [sensitive]
same,normalized growth,"locus YDL108W, strain KIN28, active compounds read low",inconclusive: 0.539 [sensitive]
same,normalized growth,[8],inconclusive: 0.532 [sensitive]
same,normalized growth,"locus YNL161W, strain CBK1, active compounds read low",inconclusive: 0.527 [sensitive]
same,normalized growth,[7],inconclusive: 0.867 [sensitive]
same,normalized growth,"strain NNK1, active compounds read low",inconclusive: 0.786 [sensitive]
CC1CC[C@@]2(OC1)O[C@H]1CC3C4CC[C@@H]5C[C@@H](O)CC[C@]5(C)C4CC[C@]3(C)[C@H]1[C@@H]2C (stereo not given in full),normalized growth,"locus YHR200W, strain rpn10, active compounds read low",inconclusive: 1.08 [resistant]
same,normalized growth,"locus YJL129C, strain trk1, active compounds read low",inconclusive: 1.25 [resistant]
Nc1ccc(S(=O)(=O)Nc2ncccn2)cc1,normalized growth,"locus YLR371W, strain rom2, active compounds read low",inconclusive: 0.906 [sensitive]
Cc1cc(C(C)(C)CC(C)(C)C)ccc1OCCOCC[N+](C)(C)Cc1ccccc1,normalized growth,"locus YOL012C, strain htz1",inconclusive: 0.214 [sensitive]
CN(C)CCCN1c2ccccc2CCc2ccc(Cl)cc21,normalized growth,[2],inconclusive: 1.14 [resistant]
